Measurements from publication PMC4336329 (PLoS ONE, 2015).
Out of some 310,000 compounds screened, about 2,200 (0.71%) showed an effect of 50% or more. The effect is printed as a negative number. Some of the results follow.

Target: human ether-à-go-go-related gene (hERG) potassium channel (human, UniProt Q12809)
Assay: primary screen, population patch clamp on CHO cells stably expressing hERG

Chain of human ether-à-go-go-related gene (hERG) potassium channel (Q12809 whole entry, looked up): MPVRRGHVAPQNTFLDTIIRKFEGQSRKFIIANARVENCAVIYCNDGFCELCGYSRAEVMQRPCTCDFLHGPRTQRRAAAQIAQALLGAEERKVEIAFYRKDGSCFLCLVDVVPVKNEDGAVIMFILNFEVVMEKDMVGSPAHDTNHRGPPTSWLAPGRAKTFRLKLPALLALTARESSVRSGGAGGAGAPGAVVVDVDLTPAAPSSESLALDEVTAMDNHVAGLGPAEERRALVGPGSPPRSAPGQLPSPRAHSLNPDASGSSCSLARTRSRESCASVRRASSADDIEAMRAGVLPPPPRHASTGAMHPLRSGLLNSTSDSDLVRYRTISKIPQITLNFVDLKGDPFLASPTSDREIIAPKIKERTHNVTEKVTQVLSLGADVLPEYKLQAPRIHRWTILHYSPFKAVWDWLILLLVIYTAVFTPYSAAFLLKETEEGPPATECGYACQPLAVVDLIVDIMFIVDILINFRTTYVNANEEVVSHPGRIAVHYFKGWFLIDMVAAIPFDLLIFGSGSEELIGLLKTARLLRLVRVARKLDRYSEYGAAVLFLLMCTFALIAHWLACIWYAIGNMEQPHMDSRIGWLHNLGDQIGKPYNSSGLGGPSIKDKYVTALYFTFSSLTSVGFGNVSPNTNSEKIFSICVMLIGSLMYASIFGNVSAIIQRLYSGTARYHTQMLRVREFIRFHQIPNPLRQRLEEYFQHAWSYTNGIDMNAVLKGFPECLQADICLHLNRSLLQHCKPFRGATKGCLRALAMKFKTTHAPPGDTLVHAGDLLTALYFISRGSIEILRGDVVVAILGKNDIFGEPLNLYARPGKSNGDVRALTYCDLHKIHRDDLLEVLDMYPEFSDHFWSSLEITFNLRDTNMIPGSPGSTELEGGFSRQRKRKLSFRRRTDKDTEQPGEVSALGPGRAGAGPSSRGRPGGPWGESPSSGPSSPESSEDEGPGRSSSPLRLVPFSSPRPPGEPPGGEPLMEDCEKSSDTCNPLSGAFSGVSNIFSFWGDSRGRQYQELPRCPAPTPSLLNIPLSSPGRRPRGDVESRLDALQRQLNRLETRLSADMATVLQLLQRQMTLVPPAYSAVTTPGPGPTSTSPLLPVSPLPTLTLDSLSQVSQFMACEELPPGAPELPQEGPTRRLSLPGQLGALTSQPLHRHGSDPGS

Compound | hERG current change (%, negative = inhibition) at 1uM [%]
COc1ccccc1-n1c(C)cc(SC)c(C(C)=O)c1=S | 1.01
O=c1[nH]cc(S(=O)(=O)Nc2ccc3c(c2)OCO3)c(=O)[nH]1 | -3.64
COc1cc(OC)c(C(=O)OCC(=O)NC2CCCC2)cc1OC | 16.7
CC(C)CNC(=S)N(CCO)Cc1cc2cc3c(cc2[nH]c1=O)OCO3 | 4.31
CCN1CCN(Cc2ccc(NC(=O)c3ccc(C)c(NC(=O)c4csc(-c5ccncc5)n4)c3)cc2C(F)(F)F)CC1 | 9.53
CCS(=O)(=O)N1Cc2ccccc2CC1C(=O)Nc1nc2c(C)cccc2s1 (centres unmarked) | 16
Cc1ccc(-c2csc(NC(=O)CN3CCOCC3)n2)cc1C | 13.6
C=CCNC(=S)NN=C1CCCCCCC1 | 9.69
O=C(CS(=O)CC(=O)N(CC(=O)NC1CCCC1)c1ccc2c(c1)OCCO2)Nc1ccc(F)cc1 (centres unmarked) | 10.1
CC(=O)N1CCCc2cc(S(=O)(=O)N3CCCC(C(=O)Nc4ccc(C)cc4C)C3)ccc21 (centres unmarked) | 14.2
COC(=O)C1=C(C)N(Cc2ccccc2)C(=O)N[C@H]1c1cccc(C(F)(F)F)c1 | 8.44
Cc1[nH]c(C)c(S(=O)(=O)N2c3ccccc3CC2C)c1C(=O)N1CCCCC1 (centres unmarked) | 8.94
CCOc1ccc(-c2cc(CCCC(=O)NCc3ccc(C)cc3)no2)cc1 | 13.1
COC(=O)c1ccc(NC(=O)CCn2cccc2)cc1 | 20.3
O=C(COC(=O)c1cc([N+](=O)[O-])ccc1Cl)NCCc1ccccc1 | 4.26
N#Cc1c(-c2ccc(Cl)cc2)ccnc1N1CCOCC1 | 3.35
Cc1ccc(N2C(=O)CC(Sc3ccccc3C(=O)O)C2=O)cc1 (centres unmarked) | 9.14
Cc1ccc(C(=O)NCCc2n[nH]c(=S)n2C)cc1 | 10.6
COc1ccc(OCC(=O)Nc2ccc(N3CCOCC3)cc2)c([N+](=O)[O-])c1 | 7.71
CC1=CC(C2CC(=O)N(c3ccc(C)cc3)C2=O)CC2C(=O)N(c3ccc(C)cc3)C(=O)C12 (centres unmarked) | 11.6
O=C(Nc1ccc(Cl)cc1)O/N=C(\c1ccccc1)c1ccccn1 | 0.811
CCOC(=O)c1sc2nc(C)c3c(c2c1N)CC(C)(C)OC3 | 12.9
Cc1nc(-c2ccccc2)sc1C(=O)Nc1ccccc1F | 13.6

Compound | hERG current change (%, negative = inhibition) at 1uM [%]
CCC1(CC)NC(=O)N(CC(=O)OCc2nc3cc(C(=O)OC)ccc3c(=O)[nH]2)C1=O | 9.38
COc1ccc(NS(=O)(=O)c2cccc(C(=O)N3CCN(c4ccccc4O)CC3)c2)cc1 | -8.74
CC(=O)c1ccc(OC(=O)CCc2ccccc2)cc1 | 14
CC(=O)Nc1ccc(C(=O)OCCc2ccccc2)cc1 | 12
Cn1nc(C(=O)NNC(=O)CCOc2ccc(C(C)(C)C)cc2)c2ccccc2c1=O | -8.16
NC(=O)Cn1c(-c2nonc2N)nc2ccccc21 | 10.2
CCOc1ccc(Nc2c3ccccc3nc3ccccc23)cc1 | 2.31
O=C(CSc1nnc(Nc2ccccc2)s1)NC1CC1 | 1.19
Cc1cc(C(=O)NCc2ccc(C(=O)O)o2)c(C)o1 | 7.76
O=C(Nc1ccc2nc(-c3ccco3)[nH]c2c1)c1ccco1 | 5.2
Cc1c(OCC(=O)NCCCN2CCCC2=O)ccc2c3c(c(=O)oc12)CCCC3 | 5.38
NC(=O)c1cc2ccccc2o/c1=N/NC(=O)c1ccccc1 | 5.3
Cc1cc(C)c2[nH]c(=O)c(C(c3nnnn3Cc3ccc4c(c3)OCO4)N3CCCC3)cc2c1 (centres unmarked) | 5.5
COC(=O)c1ccc(NC(=O)c2ccc3c(c2)NC(=O)C2CCCN32)cc1 (centres unmarked) | 3.51
O=C(N/N=C/c1c[nH]c2ccc(Br)cc12)c1ccccn1 | 14.2
COc1cccc(OC)c1OCCCSc1nc(C)cc(=O)[nH]1 | -2.38
Cc1ccc(N(CC(=O)NC2CCCCC2C)S(=O)(=O)c2c(C)nn(C)c2C)cc1 (centres unmarked) | 10.7
O=S(=O)(Nc1ccc(-n2cnnn2)cc1)c1ccccc1F | 11.6
CCN1CCN(CCCCSc2ccccc2)CC1.O=C(O)C(=O)O | 5
NC(=O)CSc1nnc(NC(=O)C2CC(=O)N(c3ccc(F)cc3)C2)s1 (centres unmarked) | 17.2
COc1ccc(NC(=O)c2ccc(C)o2)c([N+](=O)[O-])c1 | 3.68
COCCCN1C(=O)C(=O)/C(=C(/O)c2ccc(OC(C)C)cc2)C1c1ccncc1 (centres unmarked) | 17.4
O=C(/C=C/c1cccc2ccccc12)NCCC1=CCCCC1 | 10.3

Compound | hERG current change (%, negative = inhibition) at 1uM [%]
O=C(Nc1ccccc1C(=O)O)c1ccc(Br)c(S(=O)(=O)NCc2ccccc2)c1 | 13.7
CCOCCCNc1nc(-c2ccccc2)nc2ccccc12.Cl | 9.26
CCc1nnc(NS(=O)(=O)c2ccc(NC(=S)NC(=O)c3ccc(OC)cc3)cc2)s1 | 15
COC(=O)c1cc2c(ccn2-c2ccc(F)cc2)n1CC(=O)C(C)(C)C | 13.9
COc1cc2c3c(c1OC)C1(C=CC(=O)C=C1)CC3N(C(C)=O)CC2 (centres unmarked) | 2.4
CSc1nc(-c2ccccc2)nc(N)c1C(C)=O | 5.67
COc1ccc(/C=N/Nc2ccc(C(=O)O)cc2)cc1OC | 4.49
Cc1cc(C)c(C(=O)N2CCCC(CNS(=O)(=O)c3cccs3)C2)o1 (centres unmarked) | 8.74
CC(CC(=O)Nc1cccc(S(=O)(=O)N2CCCCC2)c1)c1ccccc1 (centres unmarked) | 7.84
Cc1ccccc1C(=O)Nc1nnc(SCC(=O)NCc2ccco2)s1 | 9.58
COc1cc(OC)c(C2CC(=O)N3CN(c4ccccc4)CSC3=C2C#N)cc1OC (centres unmarked) | 10.1
COc1ccccc1NC(=O)C(=O)Nc1ccccn1 | 11.7
CC1CCC2(CC1)NC(=O)N(CC(=O)Nc1cccc(S(=O)(=O)N3CCCC3)c1)C2=O (centres unmarked) | 3.91
S=C(NCc1ccccc1)Nc1ccc(Oc2ccccc2)cc1 | 15.5
Cc1cc(C(=O)C(=O)N(C)C)c(C)n1-c1ccc(Cl)cc1 | 12.7
NC(=O)c1ccsc1NC(=O)COC(=O)C1CC2CCCC(C1)C2=O (centres unmarked) | 37.3
COc1cc2c(cc1O)C[C@H]1NCCc3cc4c(c-2c31)OCO4 | 2.12
Cc1c(C)n(CCC(=O)O)c2ccccc12 | 21
Cc1ccc(C)c(OCCC(=O)N2CCN(S(=O)(=O)c3cc(F)ccc3F)CC2)c1 | 7.84
O=C(CSCc1c(F)cccc1Cl)NCCc1ccccc1 | 8.84
O=C(O)CC(NC(=O)Cc1ccccc1)c1ccccc1 (centres unmarked) | 10.1
CCn1c(SCC(=O)N/N=C/C=C/c2ccco2)nc2ccccc21 | 3.34
CCCCN1CC(=O)N2[C@H](c3ccc(Cl)cc3)[C@@H]3C(=O)N(CC)C(=O)[C@@H]3[C@]2(C)C1=O | -0.844

Compound | hERG current change (%, negative = inhibition) at 1uM [%]
O=C(O)c1cn(Cc2cccnc2)c(=O)c2ccccc12 | 9.94
O=c1c2ccccc2nc(/C=C/c2ccccc2)n1CCCO | 0.792
CCCCn1c(SCC(=O)Nc2ccc3c(c2)OCO3)nc2c1c(=O)n(C)c(=O)n2C | -8.07
CC(=NCCc1ccccc1)C1=C(O)CCC1=O | -1.37
Cc1ccc(S(=O)(=O)NC2=NCN(C)CN2)cc1[N+](=O)[O-] | -8.15
CCCS(=O)(=O)N1CCC(C(=O)N2CCCC2)CC1 | 3.1
CC(C)COC(=O)n1ccc(C(=O)N2CCCCC2)n1 | 0.919
COc1ccc(Cc2nc3ccc(C(=O)NCc4ncc(C)[nH]4)cc3o2)cc1OC | 6.64
COc1cc(-n2c(C)nc3cc(C(=O)O)ccc32)cc(OC)c1OC | 8.5
CC(C)(C)n1cnc2cc(NC(=O)c3ccco3)ccc21 | 16
O=C(Cc1c(F)cccc1Cl)Nc1ccc(S(=O)(=O)N2CCOCC2)cc1 | 12.8
CCOc1cccc(/C=N/NC(=O)c2cc(-c3cccn3C)n[nH]2)c1O | 1.34
O=C(Nc1ccc2c(c1)OCCO2)C1CCN(C(=O)c2ccccc2)CC1 | 7.75
Cc1c(Cl)cccc1NC(=S)N1CCN(c2ncccn2)CC1 | 16.6
COC(=O)c1ccc(Cn2cnc3c(cnn3-c3ccc(C)c(C)c3)c2=O)o1 | 7.86
COc1ccc(OC)c(CCNC(=O)CCCC(=O)n2ncc3cc(C)ccc32)c1 | 5.91
O=[N+]([O-])c1cccc(/C=N/n2cnnc2)c1O | 7.69
CN(C)S(=O)(=O)c1ccc(NC(=S)NC(=O)c2cccs2)cc1 | 12.3
Cn1cc(Br)c(C(=O)NN2C(=O)C3C4C=CC(C5CC45)C3C2=O)n1 (centres unmarked) | 29.1
O=C(CCCc1cccs1)Nc1ccc2c(c1)OCO2 | 12
